In publication PMC4336329 (PLoS ONE, 2015):
The campaign covered roughly 310,000 compounds. About 2,200 (0.71%) showed an effect of 50% or more. The effect is printed as a negative number. The list shows a part of the results.

What follows are compounds tested against human ether-à-go-go-related gene (hERG) potassium channel (human, UniProt Q12809) (assay: primary screen, population patch clamp on CHO cells stably expressing hERG).
human ether-à-go-go-related gene (hERG) potassium channel, sequence (Q12809 whole entry, looked up): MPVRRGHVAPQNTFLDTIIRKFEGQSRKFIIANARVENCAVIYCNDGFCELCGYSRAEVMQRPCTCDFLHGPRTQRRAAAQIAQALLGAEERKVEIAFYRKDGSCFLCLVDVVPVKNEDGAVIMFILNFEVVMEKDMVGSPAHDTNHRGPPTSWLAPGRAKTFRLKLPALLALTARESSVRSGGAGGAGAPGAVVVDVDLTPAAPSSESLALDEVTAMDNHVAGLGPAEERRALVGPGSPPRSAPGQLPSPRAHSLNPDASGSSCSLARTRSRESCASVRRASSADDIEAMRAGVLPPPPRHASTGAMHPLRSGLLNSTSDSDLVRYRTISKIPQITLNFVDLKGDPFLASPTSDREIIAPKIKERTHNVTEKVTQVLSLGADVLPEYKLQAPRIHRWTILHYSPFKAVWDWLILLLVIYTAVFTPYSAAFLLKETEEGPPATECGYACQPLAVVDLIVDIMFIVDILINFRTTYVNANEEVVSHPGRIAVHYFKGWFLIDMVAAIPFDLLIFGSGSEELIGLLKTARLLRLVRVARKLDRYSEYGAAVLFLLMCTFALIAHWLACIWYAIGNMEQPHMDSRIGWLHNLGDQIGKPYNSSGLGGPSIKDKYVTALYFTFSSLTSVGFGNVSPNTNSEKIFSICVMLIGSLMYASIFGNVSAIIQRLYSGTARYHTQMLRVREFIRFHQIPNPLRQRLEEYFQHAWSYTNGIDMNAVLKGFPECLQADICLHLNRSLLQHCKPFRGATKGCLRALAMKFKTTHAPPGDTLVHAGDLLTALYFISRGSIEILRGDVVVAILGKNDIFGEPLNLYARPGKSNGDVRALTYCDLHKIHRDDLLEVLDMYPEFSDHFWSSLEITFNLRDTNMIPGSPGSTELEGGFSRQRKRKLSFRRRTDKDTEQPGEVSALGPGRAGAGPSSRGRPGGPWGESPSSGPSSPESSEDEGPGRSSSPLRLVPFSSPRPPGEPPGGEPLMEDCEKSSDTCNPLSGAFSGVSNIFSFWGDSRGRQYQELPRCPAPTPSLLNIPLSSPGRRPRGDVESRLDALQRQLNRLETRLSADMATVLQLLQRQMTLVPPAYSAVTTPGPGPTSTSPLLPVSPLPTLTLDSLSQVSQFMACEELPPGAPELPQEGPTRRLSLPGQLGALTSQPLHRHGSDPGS
O=C(CN1C(=O)C2CCCCC2C1=O)Nc1cc(C(F)(F)F)ccc1N1CCCC1 (stereo not drawn) was tested, and the “hERG current change (%, negative = inhibition) at 1uM” value was 15.4%. In the case of CCOC(=O)c1sc(NS(=O)(=O)c2ccccc2Cl)nc1C, the “hERG current change (%, negative = inhibition) at 1uM” value is reported as 6.75%. For CCOc1ccc(NC(=O)Cn2c(=O)n(CCCC(=O)NC3CCN(Cc4ccccc4)CC3)c(=O)c3ccccc32)cc1, the “hERG current change (%, negative = inhibition) at 1uM” value was -5.36%. For C/C(=N\NC(=O)c1c(Cl)cnn1C)c1ccc(NC(=O)c2ccncc2)cc1, the “hERG current change (%, negative = inhibition) at 1uM” value was 9.51%. CCOC(=O)C1CCN(C(=O)c2cn(CCOC)c(=O)c3c2c2ccccc2n3C)CC1 was tested, and the “hERG current change (%, negative = inhibition) at 1uM” value was -5.83%. In the case of CCOC(=O)c1cnc(-n2nc(C)cc2C)nc1-n1nc(C)cc1C, the “hERG current change (%, negative = inhibition) at 1uM” value is reported as -1.61%. For CC(=O)Nc1ccc(S(=O)(=O)N2CCN(c3cc(C)nc4ncnn34)CC2)cc1, the “hERG current change (%, negative = inhibition) at 1uM” value was -9.05%. In the case of COc1ccc(C(=O)Nc2ccc(NC(=O)C(C)C)nc2)cc1, the “hERG current change (%, negative = inhibition) at 1uM” value is reported as 7.42%. For Cc1cc(-c2ccccc2)nc(SCc2ccc(C(=O)O)o2)n1, the “hERG current change (%, negative = inhibition) at 1uM” value was 1.35%. CC(C)N1C(=O)C2C(C(=O)NC3CCCCC3)C3C=CC2(O3)C1C(=O)NC1CCCC1 (stereo not drawn) was tested, and the “hERG current change (%, negative = inhibition) at 1uM” value was 4.71%. For CCCCc1nc2c(C)c(N)cnc2n1Cc1cccc([N+](=O)[O-])c1, the “hERG current change (%, negative = inhibition) at 1uM” value was 5.37%. CS(=O)(=O)N(CC(=O)N1CCCC1)Cc1ccccc1 was tested, and the “hERG current change (%, negative = inhibition) at 1uM” value was 9.01%. COc1ccc(CCNC(=O)C2CCCN(S(C)(=O)=O)C2)cc1 (stereo not drawn) was tested, and the “hERG current change (%, negative = inhibition) at 1uM” value was 1.53%. For O=C(Cc1ccc(S(=O)(=O)N2CCCC2)s1)NC1CCCCCC1, the “hERG current change (%, negative = inhibition) at 1uM” value was -10.3%. In the case of CSc1ncc(C(=O)Nc2ccc(C(C)=O)cc2)c(-c2ccccc2)n1, the “hERG current change (%, negative = inhibition) at 1uM” value is reported as 7.32%. COc1cc2[nH]c3ccccc3c2cc1C was tested, and the “hERG current change (%, negative = inhibition) at 1uM” value was 10.5%. In the case of CCOC(=O)CCCNC(=O)COC(=O)c1cccc(F)c1, the “hERG current change (%, negative = inhibition) at 1uM” value is reported as 16.6%. In the case of Cc1cc(C)cc(NC(=S)NCCc2ccc(S(N)(=O)=O)cc2)c1, the “hERG current change (%, negative = inhibition) at 1uM” value is reported as 2.42%. With Cn1c2ccccc2c(=O)c2c(=O)n(-c3ccccc3)c(C3CCCCC3)nc21 the “hERG current change (%, negative = inhibition) at 1uM” value was 9.09%. For CC(=O)Nc1ccc(C(=O)C(Cc2ccccc2)N(C)C)cc1.Cl (stereo not drawn), the “hERG current change (%, negative = inhibition) at 1uM” value was 15.3%. For CCC(C)(C)C1CCC2(CC1)NC(=O)N(CC(=O)N(C)Cc1ccc3c(c1)OCCO3)C2=O (stereo not drawn), the “hERG current change (%, negative = inhibition) at 1uM” value was 10.3%. With CCOc1ccccc1NC(=O)CC1NCCNC1=O (stereo not drawn) the “hERG current change (%, negative = inhibition) at 1uM” value was 3.53%. CC1CN(C(=O)c2cn3ccccc3n2)CC(C)O1 (stereo not drawn) was tested, and the “hERG current change (%, negative = inhibition) at 1uM” value was -3.23%. With Cc1nn(Cc2ccccc2)c(C)c1NS(=O)(=O)c1ccccc1 the “hERG current change (%, negative = inhibition) at 1uM” value was 17.9%. O=C(Oc1ccc(F)cc1)N1CCOCC1 was tested, and the “hERG current change (%, negative = inhibition) at 1uM” value was 9.32%. For CCCn1nc(NS(=O)(=O)c2cccc3nonc23)c2cc3cc(C)ccc3nc21, the “hERG current change (%, negative = inhibition) at 1uM” value was 4.58%. O=C(Nc1ccc(F)cc1)c1ccc2nsnc2c1 was tested, and the “hERG current change (%, negative = inhibition) at 1uM” value was 3.1%. In the case of CCCNC(=O)C1CNc2ccccc2O1 (stereo not drawn), the “hERG current change (%, negative = inhibition) at 1uM” value is reported as 14.6%. Cc1cc(NC(=O)c2ccccc2F)n(-c2nc3ccccc3[nH]2)n1 was tested, and the “hERG current change (%, negative = inhibition) at 1uM” value was 12%. With N#C/C(=C\c1ccc(O)c(O)c1)C(=O)Nc1cccc2ncccc12 the “hERG current change (%, negative = inhibition) at 1uM” value was 15.7%. With Cc1ccc(CNC(=O)CCC(=O)Nc2nnc(C(C)C)s2)cc1 the “hERG current change (%, negative = inhibition) at 1uM” value was 18.6%. In the case of Cc1nn(Cc2ccc([N+](=O)[O-])cc2)c(=O)n1-c1c(F)cccc1F, the “hERG current change (%, negative = inhibition) at 1uM” value is reported as -10.9%. With CCCc1cc2c(OC(=O)CC)c(-c3ccc(C(=O)OCC)o3)c(=O)oc2cc1OC the “hERG current change (%, negative = inhibition) at 1uM” value was 9.96%. COc1cc(-c2nnc(SCC(=O)O)n2-c2ccccc2)cc(OC)c1OC was tested, and the “hERG current change (%, negative = inhibition) at 1uM” value was 24.8%. For CCOC(=O)Cc1csc(N/N=C\c2ccc(N(C)C)cc2)n1, the “hERG current change (%, negative = inhibition) at 1uM” value was 8.06%. In the case of Cc1ccc(S(=O)(=O)Nc2ccc3c(c2)CCC3)cc1, the “hERG current change (%, negative = inhibition) at 1uM” value is reported as 8.07%. For O=C(Cn1cnc2c(nnn2Cc2ccccc2)c1=O)NCc1ccco1, the “hERG current change (%, negative = inhibition) at 1uM” value was 8.24%. For CCOC(=O)C1=NN(c2ccccc2C)C2=NC(C)=C(C(=O)OC)C(c3cccc(OC)c3)N12 (stereo not drawn), the “hERG current change (%, negative = inhibition) at 1uM” value was 12.6%. With c1ccc(N2CCN(c3c4c(nc5ncnn35)CCC4)CC2)cc1 the “hERG current change (%, negative = inhibition) at 1uM” value was -22.2%. With Nc1nc(NS(=O)(=O)c2ccc(Cl)cc2)nn1-c1ccccc1 the “hERG current change (%, negative = inhibition) at 1uM” value was -3.97%. With O=C(Nc1ccc2c(c1)CCC2)C1CCN(c2ncccn2)CC1 the “hERG current change (%, negative = inhibition) at 1uM” value was 13%. CCCC1=C(C(=O)OCC)C(c2ccc(O)cc2)n2ncnc2N1 (stereo not drawn) was tested, and the “hERG current change (%, negative = inhibition) at 1uM” value was 3.94%. With CC(C)N(Cc1nc(-c2ccccc2)no1)C(=O)COc1ccccc1 the “hERG current change (%, negative = inhibition) at 1uM” value was 0.0963%. With CC(C)C(=O)Nc1ccc(Sc2ccc(F)cc2)cc1 the “hERG current change (%, negative = inhibition) at 1uM” value was 7.46%. CCOC(=O)c1sc(NC(=S)NC(=O)C2CCCC2)cc1C was tested, and the “hERG current change (%, negative = inhibition) at 1uM” value was 9.85%.
